Measured values published in PMC4336329 (PLoS ONE, 2015).
Screen size: about 310,000 compounds; about 14,000 (4.5%) showed an effect of 50% or more. The effect is printed as a negative number. This is one part of the list.

What follows are compounds tested against human ether-à-go-go-related gene (hERG) potassium channel (human, UniProt Q12809) (assay: primary screen, population patch clamp on CHO cells stably expressing hERG).
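Note: peak tail current of the secondary pulse compared with the same well before compound.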

Sequence of human ether-à-go-go-related gene (hERG) potassium channel (Q12809 whole entry, looked up): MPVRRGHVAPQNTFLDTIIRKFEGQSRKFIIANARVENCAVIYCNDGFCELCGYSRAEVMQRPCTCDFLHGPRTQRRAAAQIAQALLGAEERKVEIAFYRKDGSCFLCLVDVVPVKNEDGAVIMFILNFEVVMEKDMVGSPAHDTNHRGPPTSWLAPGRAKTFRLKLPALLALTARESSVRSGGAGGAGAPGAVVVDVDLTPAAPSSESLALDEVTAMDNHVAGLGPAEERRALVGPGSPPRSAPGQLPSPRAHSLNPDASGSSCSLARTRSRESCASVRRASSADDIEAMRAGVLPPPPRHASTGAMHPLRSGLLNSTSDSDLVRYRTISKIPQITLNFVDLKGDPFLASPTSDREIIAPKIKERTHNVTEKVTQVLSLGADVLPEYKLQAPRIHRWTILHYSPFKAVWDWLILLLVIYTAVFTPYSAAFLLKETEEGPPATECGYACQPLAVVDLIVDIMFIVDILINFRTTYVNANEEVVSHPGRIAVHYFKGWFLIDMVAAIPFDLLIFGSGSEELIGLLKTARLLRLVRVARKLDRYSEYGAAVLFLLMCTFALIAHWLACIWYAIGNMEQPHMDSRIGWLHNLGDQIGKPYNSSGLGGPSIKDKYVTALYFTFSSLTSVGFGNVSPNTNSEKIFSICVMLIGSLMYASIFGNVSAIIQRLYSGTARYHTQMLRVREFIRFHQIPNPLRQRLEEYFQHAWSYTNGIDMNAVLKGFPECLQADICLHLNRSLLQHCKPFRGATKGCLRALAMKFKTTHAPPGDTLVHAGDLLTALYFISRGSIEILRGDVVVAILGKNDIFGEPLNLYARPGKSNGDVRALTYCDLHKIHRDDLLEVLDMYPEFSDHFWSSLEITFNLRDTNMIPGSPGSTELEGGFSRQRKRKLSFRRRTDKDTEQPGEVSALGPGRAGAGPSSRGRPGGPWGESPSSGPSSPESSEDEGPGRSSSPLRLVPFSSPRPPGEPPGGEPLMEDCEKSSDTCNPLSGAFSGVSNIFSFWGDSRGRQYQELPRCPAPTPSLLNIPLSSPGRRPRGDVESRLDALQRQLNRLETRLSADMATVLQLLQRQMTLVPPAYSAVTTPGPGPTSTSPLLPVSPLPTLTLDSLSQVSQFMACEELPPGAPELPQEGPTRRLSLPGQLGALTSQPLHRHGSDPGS

SMILES	hERG current change (%, negative = inhibition) at 10uM
CCOc1ccc(NC(=O)C(=O)N/N=C/c2cccnc2)cc1	5.63%
Cn1cc(C(=O)N/N=C/C(Br)=C/c2ccccc2)ccc1=O	5.93%
CCOc1ccccc1OCCCC(=O)N1CCN(S(=O)(=O)c2ccc(C)cc2)CC1	-9.22%
COc1cccc(OCCNC(=O)c2cccc(OC)c2)c1	-1.4%
Cc1cc(SCc2ccc([N+](=O)[O-])cc2)nc(=O)[nH]1	-9.09%
Cc1ccc(CNC(=O)c2ccc(S(=O)(=O)N(C)C)cc2)n1C	19.8%
COc1cc(/C=N/NC(=O)c2ccc(O)cc2)ccc1OCC(=O)N1CC(C)OC(C)C1 (centres unmarked)	2.48%
CN(C)c1ccc(S(=O)(=O)NCC(=O)NCCOc2ccccc2F)cc1[N+](=O)[O-]	-7.99%
O=C(Nc1cccc(NC(=O)c2ccco2)n1)c1ccco1	-39.8%
CCN1C(=O)[C@H]2[C@@H](c3ccc(OC)cc3)N3C(=O)CN(Cc4ccccc4)C(=O)[C@@]3(Cc3ccccc3)[C@H]2C1=O	2.79%
CC(=O)c1ccc(N2C(=O)C3C4C=CC(CC4)C3C2=O)cc1 (centres unmarked)	13.6%
C=CCN1C(=O)C(O)=C(C(C)=O)C1c1ccccc1F (centres unmarked)	9.39%
CCOC(=O)N1CCN(C(=O)C(C)N(c2ccc(Oc3ccccc3)cc2)S(C)(=O)=O)CC1 (centres unmarked)	-45.5%
CC(C)(C)CC(=O)Nc1cc2c3c(c1)CCC(=O)N3CCC2	-1.96%
CCCNC(=O)c1c(C)cc(=O)oc1C	-6.11%
CCC(c1nnc(SCC(=O)NCCc2ccc(OC)c(OC)c2)n1Cc1ccccc1)N(C)C (centres unmarked)	26.9%
O=C(NCCc1ccccc1)c1cccc(N2C(=O)C3CC=CCC3C2=O)c1 (centres unmarked)	-6.15%
CCOC(=O)C1=NNC2(CC(=O)N(c3cc(C)cc(C)c3)C2=O)C1 (centres unmarked)	20.6%
CCCNC(=O)c1nc(C)n(-c2ccc([N+](=O)[O-])cc2)n1	-30%
CC(=O)Oc1ccc(/C=C2\N=C(C3CCCCC3)OC2=O)cc1	13.6%
CCOC(=O)C1=C(C)NC(=S)NC1c1ccc(OCC(=O)N2CCCCCC2)cc1 (centres unmarked)	8.3%
CCOC(=O)c1[nH]c2ccc(OC)cc2c1NC(=O)CCN1CCCC(C)C1 (centres unmarked)	-36.9%
O=C(NNC(=O)c1ccccc1O)c1ccc(Br)cc1	18.2%

SMILES	hERG current change (%, negative = inhibition) at 10uM
CCCCOC(=O)N1CCOCCOCCOCCOCC1	-2.3%
Cc1ccc(S(=O)(=O)c2cc(C)cc(S(=O)(=O)Nc3ccc(C(=O)O)cc3)c2C)cc1	7.06%
O=C(COC(=O)c1ccncc1)NCCCc1ccccc1	8.12%
COC(=O)c1ccc(C(=O)OC)c(NC2=NS(=O)(=O)c3ccccc32)c1	-2.09%
O=C(O)CCCNC(=O)Nc1ccccc1	20.6%
C=CCn1c(SCc2ccc(C#N)cc2)nnc1-c1cccc(Cl)c1	-72.7%
O=C(Nc1ccnn1C1CCN(Cc2cccnc2)CC1)c1ccccc1Cl	-37.1%
CCCCCCOC(=O)C1=C(C)NC(=O)NC1c1ccc(O)cc1 (centres unmarked)	-5.94%
CCN1CCN(c2ccc(S(=O)(=O)N3CCOCC3)cc2NC(=O)CCOc2ccccc2)CC1	-30.3%
O=C(COC(=O)c1c(Cl)cccc1Cl)Nc1ccccc1Br	12.3%
CCOc1ccc(NS(=O)(=O)c2ccc(C(=O)NCC3(N(C)C)CCCCC3)cc2)cc1	-8.13%
CCNc1cc(S(=O)(=O)C(F)(F)F)ccc1N	-0.436%
CC(C)CCN(C(=O)c1ccncc1)c1c(N)n(Cc2ccccc2)c(=O)[nH]c1=O	-6.18%
O=C(c1ccc(O)c(Cl)c1)N1CCN(S(=O)(=O)c2ccccc2)CC1	10.6%
Cn1cccc1Cc1nnc(SCC(=O)N2CCc3ccccc32)n1-c1ccc(F)cc1	-8.37%
C=CCOC(=O)/C(=C\C=C\c1ccccc1)NC(=O)c1ccccc1	-10.7%
CC(=O)c1ccc(OCCOc2ccc(Cl)c3cccnc23)cc1	10.7%
CCc1c(-c2ccccc2)[n+](=O)c2c(n1[O-])CCC2	9.1%
CCCc1nc(NCc2ccncc2)c2nnn(Cc3ccccc3F)c2n1	4.43%
CCOC(=O)c1ccc2c(c1)NCc1cccc(OC)c1O2	13.4%
CSc1nsc(SCC(=O)Nc2ccccn2)n1	12.9%
O=C(CCN1C(=O)COc2ccccc21)N1CCN(c2ccccn2)CC1	-69.3%
CCn1c(C)nc([N+](=O)[O-])c1Sc1ccc(F)cc1	2.98%

SMILES	hERG current change (%, negative = inhibition) at 10uM
CC1(C)Cc2nc(N)c(=O)sc2C1	20.5%
CC(=O)n1ccnc1	16.2%
CC(=O)c1cc(-c2ccccc2)n(CC(=O)Nc2ccc(C)c(C)c2)c1C	33.2%
CC(=O)c1cnc(-c2cccc(Cl)c2)s1	14.9%
CC1CCN(C(=S)c2cn(Cc3ccccc3F)c3ccccc23)CC1	14.1%
CCOC(=O)C1C(c2cc(OC)c(OC)c(OC)c2)NC(=S)NC1(O)C(F)(F)F (centres unmarked)	-0.79%
Cc1cc(C)c(-c2csc(NC(=O)C3=NN(c4ccccc4)C(=O)CC3)n2)c(C)c1	-10.4%
CC(C)(C)NC(=O)c1cccc2c1-c1ccccc1C2=O	10.7%
CCC(C)N1CC(=O)N2Cc3[nH]c4ccccc4c3C[C@H]2C1=O (some centres unmarked)	15%
CC(C)C(c1nnnn1Cc1ccccc1)N1CCN(Cc2ccco2)CC1.Cl (centres unmarked)	-32.1%
Cc1c(/N=C/c2ccco2)n(Cc2ccccc2)c2ccccc12	10.9%
CCOc1ccc(NC(=O)CSc2nc(C)cc(C)n2)cc1	7.68%
CCOC(=O)C1=C(N)Oc2c(oc(CO)cc2=O)C1c1ccc(F)cc1 (centres unmarked)	-14.6%
CC(C)Cc1nc2sc3c(NCc4ccco4)ncnc3c2c2c1COC(C)(C)C2	-5.32%
O=C(NCCN1CCOCC1)c1ccc2c(c1)N(Cc1ccc(Cl)cc1)C(=O)CS2	-19.7%
CCOC(=O)CSc1nnc2n1C(C)(C)Cc1ccccc1-2	-4.66%
Cc1ccc2nc3c(cc(C(=O)NCc4ccco4)c(=N)n3C3CCCC3)c(=O)n2c1	-75.8%
COc1ccccc1NC(=O)COc1ccccc1C(=O)c1cnn(-c2ccccc2)c1	-32.7%
Cc1cccc(C)c1Nc1nnc(SCc2nc3ccccc3c(=O)[nH]2)s1	-2.6%
CCc1c(C(C)=O)oc2ccc3c(C)cc(=O)oc3c12	2.57%
Cc1ccc(/C=c2\sc3nc(-c4ccccc4Br)nn3c2=O)o1	-7.13%
O=C(CCCl)Nc1nc2c(s1)CCc1ccccc1-2	15.9%
CCCCNC(=O)Nc1ccc(C(O)(C(=O)OCC)C(F)(F)F)cc1 (centres unmarked)	-2.09%

SMILES	hERG current change (%, negative = inhibition) at 10uM
COc1ccc(COC(=O)C2=C(C)NC(=O)NC2c2cc(Br)c(O)c(OC)c2)cc1 (centres unmarked)	1.73%
Cc1ccccc1CSc1[nH]c(=O)ncc1C	12.3%
O=C(NCc1ccc2c(c1)OCO2)C1CC(c2ccc(Cl)cc2)=NO1 (centres unmarked)	-3.96%
COC(=O)c1ccc(C(=O)OC)c(NC(=O)CN(C)Cc2ccccc2)c1	-19.8%
CCOC(CNC(=O)c1ccc2c(c1)nc(C)n2-c1cccc(F)c1)OCC	-1.42%
Nc1ccc(O)c2c(=O)cc(-c3ccccc3Cl)oc12	9.05%
Cc1ccc(NC(=O)N(Cc2ccc3c(c2)OCO3)Cc2cc3cc4c(cc3[nH]c2=O)OCCO4)cc1	15.5%
O=C(O)CCN1C(=O)/C(=C\c2ccncc2)SC1=S	17.4%
COc1ccc(CC(NC(C)=O)C(=O)NC2CCN(C(=O)c3ccncc3)CC2)cc1OC (centres unmarked)	6.44%
Cc1cc(OCC(=O)NC(C)C)cc(C)c1Br	-4.16%
Cc1cc(C(=O)COc2ccc(-c3nnco3)cc2)c(C)n1Cc1ccccc1	-8.18%
COc1c(CC=C(C)C)cc(C2CC(=O)c3c(O)cc(O)cc3O2)cc1CC=C(C)C (centres unmarked)	3.16%
COc1ccc(/C=N/NC(=O)c2cc(-c3ccc(C)cc3C)nc3ccccc23)cc1COC(C)=O	20%
Cc1nnc(NC(=O)CSc2nc(C3CCCCC3)nc3ccccc23)s1	17.3%
Cc1cc(=O)[nH]c(Nc2ccc(Cl)cc2)n1	15%
COc1cc(/C=C2\SC(=S)N(C(C(=O)O)c3ccccc3)C2=O)ccc1O (centres unmarked)	-6.14%
Cc1ccc(NC2=NC3(CCCCC3)N=C(N)N2)c(C)c1	4.38%
Cc1ccc(F)cc1NC(=O)C1C2CCC(O2)C1C(=O)O (centres unmarked)	15.5%
Cc1ccc(C)c(-n2c(SCC(=O)O)nc3sc4c(c3c2=O)CCCC4)c1	19.1%
Cc1cccc(NC2=CC(=O)OC(C)C2)c1 (centres unmarked)	5.47%
